Assay results from the supplement of paper PMC4604168 (melanoma cell lines).
The other results are listed elsewhere or left out. Single values are uncertain, as repeats are few or missing.

Tests used:
Assay in all cases: cell count relative to DMSO control; melanoma cells; higher = more viable cells
Details in all cases: library dose: standard library concentration; 72 h
[1] = tested on: SkMel28
[2] = tested on: SkMel2
[3] = tested on: SkMel30
[4] = tested on: SkMel5
[5] = tested on: UACC257
[6] = tested on: UACC62
[7] = tested on: WM115
[8] = tested on: WM1716
[9] = tested on: WM1745
[10] = tested on: WM3526
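Note: cells treated in 1,536-well plates, then fixed and DAPI-stained, with nuclei counted from automated high-throughput microscope images.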

| Structure (SMILES) | cell count [1] [%] | cell count [2] [%] | cell count [3] [%] | cell count [4] [%] | cell count [5] [%] | cell count [6] [%] | cell count [7] [%] | cell count [8] [%] | cell count [9] [%] | cell count [10] [%] |
| --- | --- | --- | --- | --- | --- | --- | --- | --- | --- | --- |
| Cc1ccc(Nc2nccc(N(C)c3ccc4c(C)n(C)nc4c3)n2)cc1S(N)(=O)=O [Pazopanib] + CC(=O)O[C@@]12CO[C@@H]1C[C@H](O)[C@@]1(C)C(=O)[C@H](O)C3=C(C)[C@@H](OC(=O)[C@H](O)[C@@H](NC(=O)OC(C)(C)C)c4ccccc4)C[C@@](O)([C@@H](OC(=O)c4ccccc4)[C@H]21)C3(C)C [Docetaxel] (first compound 2 µM, partner dose 0.0005 µM) | 16.6 | 26.7 | 44 | 35.3 | 58.8 | 57.1 | 34.4 | 30.9 | 28.4 | 37.8 |
| O=C(/C=C/c1cccnc1)NCCCCC1CCN(C(=O)c2ccccc2)CC1 + Cc1ccc(Nc2nccc(N(C)c3ccc4c(C)n(C)nc4c3)n2)cc1S(N)(=O)=O [Pazopanib] (first compound 0.05 µM, partner dose 2 µM) | 40.2 | 7.37 | 75.3 | 91 | 88.8 | 62.2 | 91.9 | 76.5 | 114 | 85.1 |
| O=C(/C=C/c1cccnc1)NCCCCC1CCN(C(=O)c2ccccc2)CC1 + Cc1ccc(NC(=O)c2cccc(N(C)C)c2)cc1NC(=O)c1ccc(O)cc1 [ZM336372] (first compound 0.05 µM, partner dose 10 µM) | 74.6 | 30.6 | 110 | 114 | 105 | 98 | 83.5 | 113 | 113 | 87.2 |
| Cc1ccc(Nc2nccc(N(C)c3ccc4c(C)n(C)nc4c3)n2)cc1S(N)(=O)=O [Pazopanib] + Cn1cnc2c(F)c(Nc3ccc(Br)cc3Cl)c(C(=O)NOCCO)cc21 [selumetinib] (first compound 2 µM, partner dose 0.075 µM) | 35 | 44.7 | 68 | 77.6 | 85.7 | 74.7 | 70.3 | 67.2 | 61.3 | 56.1 |
| Cc1ccc(Nc2nccc(N(C)c3ccc4c(C)n(C)nc4c3)n2)cc1S(N)(=O)=O [Pazopanib] + Cc1ccc(NC(=O)c2cccc(N(C)C)c2)cc1NC(=O)c1ccc(O)cc1 [ZM336372] (first compound 2 µM, partner dose 10 µM) | 77.8 | 77.9 | 92.5 | 72 | 83.4 | 56.8 | 77.4 | 89.7 | 67.9 | 80.7 |
| Cc1ccc(Nc2nccc(N(C)c3ccc4c(C)n(C)nc4c3)n2)cc1S(N)(=O)=O [Pazopanib] + C#Cc1cccc(Nc2ncnc3cc(OCCOC)c(OCCOC)cc23)c1 [erlotinib] (first compound 2 µM, partner dose 4 µM) | 64.4 | 67.5 | 70.7 | 57 | 79.1 | 44.4 | 61.8 | 73.3 | 62.2 | 52.2 |
| O=C(/C=C/c1cccnc1)NCCCCC1CCN(C(=O)c2ccccc2)CC1 + C[C@]1(O)C[C@@H](c2nc(-c3ccc4ccc(-c5ccccc5)nc4c3)c3c(N)nccn32)C1 [OSI906] (first compound 0.05 µM, partner dose 2 µM) | 75 | 15.5 | 82.5 | 69.2 | 114 | 83.8 | 108 | 93 | 81.9 | 88.2 |
| O=C(/C=C/c1cccnc1)NCCCCC1CCN(C(=O)c2ccccc2)CC1 + Nc1ccn([C@@H]2O[C@H](CO)[C@@H](O)C2(F)F)c(=O)n1 [gemcitabine] (first compound 0.05 µM, partner dose 0.002 µM) | 90.5 | 19.8 | 136 | 102 | 112 | 77.4 | 104 | 71.4 | 69.2 | 123 |
| Cc1ccc(Nc2nccc(N(C)c3ccc4c(C)n(C)nc4c3)n2)cc1S(N)(=O)=O [Pazopanib] + Cn1nnc2c(C(N)=O)ncn2c1=O [temozolomide] (first compound 2 µM, partner dose 10 µM) | 43 | 85.1 | 76.7 | 76.1 | 83 | 66.6 | 72.5 | 54.4 | 96.5 | 85 |
| Cc1ccc(Nc2nccc(N(C)c3ccc4c(C)n(C)nc4c3)n2)cc1S(N)(=O)=O [Pazopanib] + NCC(=O)Nc1ccc(-n2nc(C(F)(F)F)cc2-c2ccc3c(ccc4ccccc43)c2)cc1 [OSU03012] (first compound 2 µM, partner dose 5 µM) | 18 | 37 | 29.4 | 68.4 | 69 | 49.3 | 76.1 | 74.4 | 14.8 | 45.7 |
| Cc1ccc(Nc2nccc(N(C)c3ccc4c(C)n(C)nc4c3)n2)cc1S(N)(=O)=O [Pazopanib] + CN1CCN(c2ccc3nc(-c4c(N)c5c(F)cccc5[nH]c4=O)[nH]c3c2)CC1 [Dovitinib] (first compound 2 µM, partner dose 0.5 µM) | 63.6 | 65.2 | 75.2 | 58.2 | 79.4 | 50.8 | 51.8 | 69 | 51.2 | 74.4 |
| CC1(C)CCC(c2ccc(Cl)cc2)=C(CN2CCN(c3ccc(C(=O)NS(=O)(=O)c4ccc(N[C@H](CCN5CCOCC5)CSc5ccccc5)c(S(=O)(=O)C(F)(F)F)c4)cc3)CC2)C1 + COc1cc(Nc2ncc(F)c(Nc3ccc4c(n3)NC(=O)C(C)(C)O4)n2)cc(OC)c1OC [Tamatinib] (first compound 2 µM, partner dose 2 µM) | 60 | 67.1 | 76.8 | 58.4 | 31.6 | 60.9 | 73.1 | 76.1 | 7.41 | 65 |
| Cc1ccc(Nc2nccc(N(C)c3ccc4c(C)n(C)nc4c3)n2)cc1S(N)(=O)=O [Pazopanib] + CS(=O)(=O)c1ccc(C(=O)Nc2ccc(Cl)c(-c3ccccn3)c2)c(Cl)c1 [vismodegib] (first compound 2 µM, partner dose 5 µM) | 78.4 | 108 | 90.4 | 104 | 86.7 | 80.8 | 103 | 102 | 108 | 93.7 |
| CC1(C)CCC(c2ccc(Cl)cc2)=C(CN2CCN(c3ccc(C(=O)NS(=O)(=O)c4ccc(N[C@H](CCN5CCOCC5)CSc5ccccc5)c(S(=O)(=O)C(F)(F)F)c4)cc3)CC2)C1 + C[C@@H](N)c1ccc(C(=O)Nc2ccnc3[nH]ccc23)cc1 [RKI983] (first compound 2 µM, partner dose 2 µM) | 51.8 | 84.1 | 67.7 | 60.5 | 27.1 | 32.9 | 85.7 | 36.9 | 3.79 | 94.7 |
| O=C(/C=C/c1cccnc1)NCCCCC1CCN(C(=O)c2ccccc2)CC1 + CO[C@H]1C[C@@H]2CC[C@@H](C)[C@@](O)(O2)C(=O)C(=O)N2CCCC[C@H]2C(=O)O[C@H]([C@H](C)C[C@@H]2CC[C@@H](OCCO)[C@H](OC)C2)CC(=O)[C@H](C)/C=C(\C)[C@@H](O)[C@@H](OC)C(=O)[C@H](C)C[C@H](C)/C=C/C=C/C=C/1C [everolimus] (first compound 0.05 µM, partner dose 0.1 µM) | 46.7 | 29.7 | 72.7 | 63.9 | 98 | 64.6 | 83 | 86.5 | 68.7 | 65 |
| O=C(/C=C/c1cccnc1)NCCCCC1CCN(C(=O)c2ccccc2)CC1 + C[C@@H](N)c1ccc(C(=O)Nc2ccnc3[nH]ccc23)cc1 [RKI983] (first compound 0.05 µM, partner dose 2 µM) | 89 | 15.9 | 76.4 | 48 | 53.7 | 88.6 | 85.4 | 13 | 40.2 | 99.7 |
| Cc1ccc(Nc2nccc(N(C)c3ccc4c(C)n(C)nc4c3)n2)cc1S(N)(=O)=O [Pazopanib] + Nc1cccc2c1CN(C1CCC(=O)NC1=O)C2=O [lenalidomide] (first compound 2 µM, partner dose 5 µM) | 80.6 | 104 | 84.4 | 85.7 | 84.5 | 69.7 | 90.6 | 83.8 | 88.6 | 79.3 |
| CC1(C)CCC(c2ccc(Cl)cc2)=C(CN2CCN(c3ccc(C(=O)NS(=O)(=O)c4ccc(N[C@H](CCN5CCOCC5)CSc5ccccc5)c(S(=O)(=O)C(F)(F)F)c4)cc3)CC2)C1 + Nc1ccn([C@@H]2O[C@H](CO)[C@@H](O)C2(F)F)c(=O)n1 [gemcitabine] (first compound 2 µM, partner dose 0.002 µM) | 64 | 73 | 48.5 | 85.7 | 36.8 | 58.4 | 86.6 | 37.2 | 3.5 | 94.5 |
| CC1(C)CCC(c2ccc(Cl)cc2)=C(CN2CCN(c3ccc(C(=O)NS(=O)(=O)c4ccc(N[C@H](CCN5CCOCC5)CSc5ccccc5)c(S(=O)(=O)C(F)(F)F)c4)cc3)CC2)C1 + Cn1cnc2c(F)c(Nc3ccc(Br)cc3Cl)c(C(=O)NOCCO)cc21 [selumetinib] (first compound 2 µM, partner dose 0.075 µM) | 56.6 | 38.2 | 27.6 | 71.8 | 47.1 | 37.5 | 56.5 | 63.2 | 4.96 | 46.3 |
| O=C(/C=C/c1cccnc1)NCCCCC1CCN(C(=O)c2ccccc2)CC1 + C[C@]1(c2nc3c(C(N)=O)cccc3[nH]2)CCCN1 [Veliparib] (first compound 0.05 µM, partner dose 7 µM) | 78.1 | 45.4 | 111 | 91.2 | 90.8 | 62.4 | 45.7 | 90.2 | 88.8 | 126 |
| CC1(C)CCC(c2ccc(Cl)cc2)=C(CN2CCN(c3ccc(C(=O)NS(=O)(=O)c4ccc(N[C@H](CCN5CCOCC5)CSc5ccccc5)c(S(=O)(=O)C(F)(F)F)c4)cc3)CC2)C1 + N#Cc1c(O)c2c(-c3ccc(-c4ccccc4O)cc3)csc2[nH]c1=O [A769662] (first compound 2 µM, partner dose 10 µM) | 98.9 | 77.5 | 68.4 | 88.5 | 30.2 | 77 | 85.9 | 69 |  | 83.5 |
